# Test results from PubChem BioAssay (Tox21).
# The inconclusive results got no clear call from the source; some entries with a clear call stand among them for comparison. A call without a number means that no potency is given here. Potencies beside an inconclusive call are fits to weak or partial responses and may not hold up. The source made the active and inactive calls. The call rests on the fitted dose curve; in most records, active means well fitted cell-killing curve with a large enough effect in the repeat runs; inconclusive means weak or mixed curves; inactive means no such curve, though single readings can be large or run the other way.
# Assay: qHTS assay to identify small molecule agonists of the peroxisome proliferator-activated receptor delta (PPARd) signaling pathway - cell viability counter screen (AID 743211); further: nearly all actives have a fitted effect of over 55% in size
# Settings: PPARd-bla HEK293H viability, CellTiter-Glo luminescence, 17 h; activity change, negative = cytotoxicity: at 62.6 µM (top of the series) unless noted
# Excerpt: U.S. Tox21 Program National Center for Advancing Translational Sciences [NCATS] NIH Chemical Genomics Center [NCGC] U.S. Environmental Protection Agency [EPA] National Institutes of Environmental Health Sciences [NIEHS] National Toxicology Program [NTP] U.S. Food and Drug Administration [FDA] Tox21 Assay Overview: The peroxisome proliferator-activated receptors (PPARs) are lipid-activated transcription factors of the nuclear receptor superfamily with three distinct subtypes namely PPAR alpha, PPAR delta (PPARd) and PPAR gamma. All these subtypes heterodimerizes with Retinoid X receptor (RXR) and have different physiological functions. […] To identify the compounds that activate PPAR-delta signaling, GeneBLAzer PPAR delta UAS-bla HEK293H cell line (Invitrogen, Carlsbad, CA, USA) containing a beta-lactamase reporter gene under the control of an Upstream Activator Sequence (UAS) was used to screen the Tox21 compound library. The cytotoxicity of the Tox21 compound library against the PPARd-bla cell line was tested in parallel by measuring the cell viability using CellTiter-Glo assay (Promega, Madison, WI) in the same wells.
# Tox21 Assay Protocol Summary: PPARd-bla cells were dispensed at 3000 cells/6uL/well in 1536-well black wall/clear bottom plates using a Multidrop Combi (Thermo Fisher Scientific, Waltham, MA) dispenser. After the assay plates were incubated at 37 C and 5% CO2 for 5 h, 23 nL of compounds dissolved in DMSO, positive controls or DMSO only was transferred to the assay plate by a Pintool station (Kalypsys, San Diego, CA). The assay plates were incubated at 37C for 17 h. After 1 uL of LiveBLAzerTM B/G FRET substrate was added using a Bioraptr Flying Reagent Dispenser (FRD) workstation (Beckman Coulter, Indianapolis, IN, USA), the plates were incubated at room temperature for 2 h, and fluorescence intensity was measured by an Envision plate reader (PerkinElmer, Shelton, CT). For cell viability readout that measures cytotoxicity, 3 ul/well of CellTiter-Glo reagent was added into the assay plates using a Bioraptr FRD. After 30 min incubation at room temperature, the luminescence intensity in the plates was measured using a ViewLux plate reader (PerkinElmer).
# Potency means the concentration at half of the fitted maximal effect; tags describe the fitted curve by direction and shape.
Compound,Potency,"activity change, negative = cytotoxicity"
COc1ccc(C(C)=O)cc1,"inconclusive: 22.5 µM [cytotoxic, single point]",
COP(=O)(OC)OC(c1ccc(Cl)cc1)P(=O)(OC)OC (stereo not given),inactive,
c1ccc2nccnc2c1,inactive,
CCOC(=N)CC(=O)OCC,"inconclusive: 17.4 µM [cytotoxic, full curve]",
CN(C)CCc1c[nH]c2ccc(CS(=O)(=O)N3CCCC3)cc12,inactive,
OC1OC[C@@H](O)[C@H](O)[C@H]1O (stereo not given in full),inactive,
CCCCCC(=O)CC,inactive,
CCN(C=O)CC,inactive,
C=C[C@H]1CN2CC[C@H]1C[C@H]2[C@H](O)c1ccnc2ccc(OC)cc12,"inconclusive: 19.5 µM [cytotoxic, partial curve]",
C1CCC2=NCCCN2CC1,"inconclusive: 0.155 µM [cytotoxic, full curve, poor fit]",
O=S(=O)(O)c1ccc2cc(O)ccc2c1,"inconclusive: 3.47 µM [cytotoxic, full curve, poor fit]",
CCC1C(=O)OCC1Cc1cncn1C (stereo not given),inactive,
COc1ccc(CCN(C)CCCC(C#N)(c2ccc(OC)c(OC)c2)C(C)C)cc1OC (stereo not given),"inconclusive: 54.8 µM [cytotoxic, single point]",
CCCCOC(=O)CC(CC(=O)OCCCC)(OC(C)=O)C(=O)OCCCC,inactive,
[O]=[Mo](=[O])=[O],,inconclusive: -30.2% [cytotoxic] [at 29.1 µM]
CN/C(=C\[N+](=O)[O-])NCCSCc1csc(CN(C)C)n1,inactive,
CCCCCCCCC(CO)CCCCCC (stereo not given),inactive,
O=C(OCc1ccccc1)C(=O)OCc1ccccc1,"inconclusive: 34.7 µM [cytotoxic, partial curve]",
OCc1cccc(Oc2ccccc2)c1,inactive,
CCc1ccc(CC)cc1,"inconclusive: 0.0875 µM [rising, full curve]",

Compound,Potency,"activity change, negative = cytotoxicity"
CC(C)=CCC/C(C)=C/C#N,"inconclusive: 20.2 µM [cytotoxic, partial curve, poor fit]",
CC(C)OC(=O)COc1ccc(Cl)cc1Cl,inactive,
COC[C@H](c1ccc(C(F)(F)F)cc1)N1CCN(C2(C)CCN(C(=O)c3c(C)ncnc3C)CC2)C[C@H]1C,"inconclusive: 5.31 µM [cytotoxic, full curve, poor fit]",
CCCCCCCCCCCCCCCCI,"inconclusive: 13.3 µM [cytotoxic, partial curve, poor fit]",
CC(C)C[C@@H]1[C@H](c2ccccc2)OC(=O)N1CCCN1CCCCCC1,"inconclusive: 2.37 µM [cytotoxic, full curve]",
COC(=O)CCCC(=O)O,inactive,
C[C@H]1C[C@@H](O)CC(C)(C)C1,,inconclusive: -31.3% [cytotoxic]
CSc1nc(NC2CC2)nc(NC(C)(C)C)n1,inactive,
NS(=O)(=O)c1ccccc1Cl,"inconclusive: 19.5 µM [cytotoxic, partial curve, poor fit]",
CCCN1C[C@H](CSC)C[C@@H]2c3cccc4[nH]cc(c34)C[C@H]21,"inconclusive: 7.5 µM [cytotoxic, partial curve, poor fit]",
CCCCC(CC)COC(=O)c1ccc(C(=O)OCC(CC)CCCC)cc1 (stereo not given),inactive,
CC(C)(C)OC(=O)c1cccc(N)c1,inactive,
c1ccc([C@H]2CN3CCSC3=N2)cc1,,inconclusive: -8.51% [cytotoxic]
CCC(=O)CC,"inconclusive: 0.616 µM [rising, full curve, poor fit]",
CC(C)OC(=O)OCOP(=O)(CO[C@H](C)Cn1cnc2c(N)ncnc21)OCOC(=O)OC(C)C,inactive,
COC(=O)[C@@H]1CC2=CC(=O)CC[C@]2(C)[C@@]23O[C@@H]2C[C@@]2(C)[C@@H](CC[C@@]24CCC(=O)O4)[C@H]13,inactive,
CCC[C@@H]1C[C@@H](C(=O)N[C@@H]([C@H]2O[C@H](SC)[C@H](O)[C@@H](O)[C@H]2O)[C@@H](C)O)N(C)C1,inactive,
Cc1c(C(=O)c2c[nH]n(C)c2=O)ccc(S(C)(=O)=O)c1C1=NOCC1,inactive,
CN(C)c1cc(NC(=O)CNC(C)(C)C)c(O)c2c1C[C@H]1C[C@H]3[C@H](N(C)C)C(=O)C(C(N)=O)=C(O)[C@@]3(O)C(=O)C1=C2O,"inconclusive: 13.3 µM [cytotoxic, full curve, poor fit]",
CC(C)COC(=O)CCCCC(=O)OCC(C)C,"inconclusive: 21.9 µM [cytotoxic, partial curve, poor fit]",
